Results reported in the supplement of paper PMC11417369.
± gives the standard deviation of the averaged measurements. This is one part of the list.

tested on: PfAP2-G AP2 domain (GST-tagged); assay: gcPBM binding intensity (ln(normalized median fluorescence intensity)); higher = stronger DNA binding
How it was run: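 An Agilent 4 × 180k array of primer-extended double-stranded 36-bp intergenic genomic probes, with negative controls, was incubated for 1 h with GST-tagged P. falciparum DNA-binding domains expressed in E. coli. Alexa488 anti-GST antibody detected bound protein, scanned at 488 nm. Binding intensity is the highest Masliner-normalised natural-log median intensity across replicate spots of either probe orientation.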

Sequence | gcPBM binding intensity (ln)
TACGTTTTAAAACACACACACAAAAAAAAAAAAAAA [CACACA_site3876] | 9.97 ± 0.64
ATATATACATACATATGTACATATGTAGATATATTT [XGTACX_site1230] | 10.9 ± 0.41
AAAAGAGAAATGGGCACACACACACCCATTATATAT [CACACA_site1530] | 10.6 ± 0.33
AAATATTACATACACGCACACATTAAAATATTTAAA [CACACA_site5440] | 10.4 ± 0.18
ATCTAATAAAAATACACACACATATGGTTTGTGAAT [CACACA_site6962] | 9.775 ± 0.078
ATGTACCTTCAAACTACACACAAATGAAGGAACACA [CACACA_site3330] | 11.1 ± 0.86
GCGTATCATTTTAAAACACACAGGATTTTATAAGTA [CACACA_site1225] | 10.18 ± 0.085
ATGGTATAAAAAAATACACACTTATTTATATTCTTA [CACACA_site6370] | 9.895 ± 0.049
ATATAGAATGTTTACACACGCAATAAATATATATAT [CACACA_site217] | 10.1 ± 0.14
TGTAGTCTGGAGAAGAGTACACAGTATCTGGTAGCT [XGTACX_site2036] | 11.5 ± 0.84
TTAAAAAATCACAACACACACACACGCAAAAAAAAA [CACACA_site6793] | 10.4 ± 0.38
AAAAATAACATATAAACACACATATAGATTTATATA [CACACA_site7738] | 9.735 ± 0.078
CTTTTTATTTATCATACACACACAGAAAAAAAAAAA [CACACA_site7935] | 10.2 ± 0.35
ATATACAAAGGATTAACACACATATTATTATAGATA [CACACA_site6966] | 9.86 ± 0.13
AAATAAATAAATAGAGTGCATATATATATATATTTT | 9.99 ± 0.25
AAAAAAAATAAAAATATATATATATATATATAAATA [GTGCAC_negctrl_site676] | 9.45 ± 0.085
AAGCATTTTTTTTAAAGCCTGTTCATCATCCTTACC [CACACA_negctrl_site129] | 10.1 ± 0.28
AATTTTTAGAAGAACACACACATATATATTATGACC [CACACA_site246] | 10.3 ± 0.25
ATTATGCACAGACACACACACACACTACTAAAAAAT [CACACA_site7252] | 10.5 ± 0.49
ATAGGAGAAAAAGAATGTACGTATGATGTTGAAAAT [XGTACX_site7779] | 11.4 ± 0.64
TCCTTTTTTTTTTATGCACACACAATTATACATTCC [CACACA_site9287] | 10.3 ± 0.26
ATAATATTTTTATGTACACACCTTAATCCTTAAAAG [CACACA_site5881] | 11.5 ± 0.82

Sequence | gcPBM binding intensity (ln)
TTAACCACTAAAAGTACACACATATATACATATATA [CACACA_site3912] | 11.4 ± 0.92
ACCGTGGGAGGACACACACACACACGCACATATATA [CACACA_site6289] | 11.5 ± 0.9
AAATAACTTTTAAATACACACGTAAAATATATTGTG [CACACA_site9085] | 10.39 ± 0.099
TACATTATAAATATTACACACTTTATAAAATAATAA [CACACA_site6096] | 9.89 ± 0.22
TCTATTAATTAATATACACACATTATATATATATAT [CACACA_site8815] | 10 ± 0.13
AATATATATATATATATATTTTTGTTAGAATATGGA [CACACA_negctrl_site212] | 9.61 ± 0.014
TCCTTAAATATAAAGGTGCTATGCAGACCTTATGTT [GTGCAC_site9472] | 9.93 ± 0.15
AAAAAAAAAAAAAACACACACACACGCAAATACATA [CACACA_site6474] | 10.2 ± 0.15
TTCCTATAAAAAAACACACACATATAAATATAAATA [CACACA_site7154] | 10.01 ± 0.049
ATATAAGTACGGCATGCATGCACATTTTTTTATTCC [TGCATGCA_site101] | 10.9 ± 0.5
TTATAAATTCAATGTACTACACAAAATGAATTTAAT [XGTACX_site6683] | 11.4 ± 0.82
TACAGACATAGACACACACACACGCATAAAAAAAAA [CACACA_site6820] | 10.4 ± 0.48
TACATAAACATTTATACACACATTATATATACATAT [CACACA_site8028] | 10.12 ± 0.064
TGTGCTCGCTATTACACACTCATTGGGATAAAATTG [CACACA_site2029] | 10.2 ± 0.14
TTTCTTTTAATTATCCGTACACAAACAATAAAATAA [XGTACX_site7841] | 11.4 ± 0.93
AAAATAATATATGTATGTACACAATTATTTATAAGT [XGTACX_site7267] | 11.5 ± 0.89
TGAATAAATAAGATACGTACACACATATACAAAATA [XGTACX_site7758] | 11.5 ± 0.83
TGGCTTATTCAGAAATGTACACATATAAATATATAT [XGTACX_site3765] | 11.2 ± 0.76
TTACAAAACCGATGTTGTACATTCAATAGATAATGT [XGTACX_site3806] | 11 ± 0.56
ATAACGTAAACAATGTGGACACATACATAAATATAT [XGTACX_site707] | 11.5 ± 0.88
TTTATTAAATAAAGCACACACAACAACTTTTCACAA [CACACA_site4132] | 10.3 ± 0.24
GATAACAATATGTGTACACATTTATATCTCCACATA [CACACA_site5442] | 11.7 ± 0.83
